# From PMC9911399, “Two distinct binding modes provide the RNA-binding protein RbFox with extraordinary sequence specificity”
# Numbering of substitutions follows the chain as printed; changes in the protein carry UniProt numbers. The list shows a part of the results.
# B1: CCCCCAG (DNA:RNA)
# RNA: GGGAGACCGGAAUUCAGAUUGUCCCCCCCAGUUAAAUCCCGUCGUAGCCACCA
# DNA 1: CAATCTGAATTCCGGTCTCCC
# DNA 2: TGGTGGCTACGACGGGATT
# B2: AGCCUCC (DNA:RNA)
# RNA: B1 RNA with C25A, C26G, C29U, A30C, G31C
# DNA 1: CAATCTGAATTCCGGTCTCCC
# DNA 2: TGGTGGCTACGACGGGATT
# B3: GGCUACC (DNA:RNA)
# RNA: B1 RNA with C25G, C26G, C28U, C29A, A30C, G31C
# DNA 1: CAATCTGAATTCCGGTCTCCC
# DNA 2: TGGTGGCTACGACGGGATT
# B4: ACUAAAC (DNA:RNA)
# RNA: B1 RNA with C25A, C27U, C28A, C29A, G31C
# DNA 1: CAATCTGAATTCCGGTCTCCC
# DNA 2: TGGTGGCTACGACGGGATT
# B5: UUUAGAG (DNA:RNA)
# RNA: B1 RNA with C25U, C26U, C27U, C28A, C29G
# DNA 1: CAATCTGAATTCCGGTCTCCC
# DNA 2: TGGTGGCTACGACGGGATT
# B6: AGGUUGG (DNA:RNA)
# RNA: B1 RNA with C25A, C26G, C27G, C28U, C29U, A30G
# DNA 1: CAATCTGAATTCCGGTCTCCC
# DNA 2: TGGTGGCTACGACGGGATT
# B7: UUUUUUA (DNA:RNA)
# RNA: GGGAGACCGGAAUUCAGAUUGUCCUUUUUUAUUAAAUCCCGUCGUAGCCACCA
# DNA 1: CAATCTGAATTCCGGTCTCCC
# DNA 2: TGGTGGCTACGACGGGATT
# B8: AGAAGUC (DNA:RNA)
# RNA: B7 RNA with U25A, U26G, U27A, U28A, U29G, A31C
# DNA 1: CAATCTGAATTCCGGTCTCCC
# DNA 2: TGGTGGCTACGACGGGATT
# B9: UACGUAU (DNA:RNA)
# RNA: B1 RNA with C25U, C26A, C28G, C29U, G31U
# DNA 1: CAATCTGAATTCCGGTCTCCC
# DNA 2: TGGTGGCTACGACGGGATT
# B10: GAUUCAU (DNA:RNA)
# RNA: B1 RNA with C25G, C26A, C27U, C28U, G31U
# DNA 1: CAATCTGAATTCCGGTCTCCC
# DNA 2: TGGTGGCTACGACGGGATT
# B11: CCUACUA (DNA:RNA)
# RNA: B1 RNA with C27U, C28A, A30U, G31A
# DNA 1: CAATCTGAATTCCGGTCTCCC
# DNA 2: TGGTGGCTACGACGGGATT
# B12: CGAACUC (DNA:RNA)
# RNA: B1 RNA with C26G, C27A, C28A, A30U, G31C
# DNA 1: CAATCTGAATTCCGGTCTCCC
# DNA 2: TGGTGGCTACGACGGGATT
# B13: UGAAGGA (DNA:RNA)
# RNA: B7 RNA with U26G, U27A, U28A, U29G, U30G
# DNA 1: CAATCTGAATTCCGGTCTCCC
# DNA 2: TGGTGGCTACGACGGGATT
# B14: GCGUCAG (DNA:RNA)
# RNA: B1 RNA with C25G, C27G, C28U
# DNA 1: CAATCTGAATTCCGGTCTCCC
# DNA 2: TGGTGGCTACGACGGGATT
# B15: GGAUCUA (DNA:RNA)
# RNA: B7 RNA with U25G, U26G, U27A, U29C
# DNA 1: CAATCTGAATTCCGGTCTCCC
# DNA 2: TGGTGGCTACGACGGGATT
# B16: GGCAGCU (DNA:RNA)
# RNA: B1 RNA with C25G, C26G, C28A, C29G, A30C, G31U
# DNA 1: CAATCTGAATTCCGGTCTCCC
# DNA 2: TGGTGGCTACGACGGGATT
# B17: AUGUCGU (DNA:RNA)
# RNA: B7 RNA with U25A, U27G, U29C, U30G, A31U
# DNA 1: CAATCTGAATTCCGGTCTCCC
# DNA 2: TGGTGGCTACGACGGGATT
# B18: GGUGCAU (DNA:RNA)
# RNA: B1 RNA with C25G, C26G, C27U, C28G, G31U
# DNA 1: CAATCTGAATTCCGGTCTCCC
# DNA 2: TGGTGGCTACGACGGGATT
# B19: CAGGGAU (DNA:RNA)
# RNA: B1 RNA with C26A, C27G, C28G, C29G, G31U
# DNA 1: CAATCTGAATTCCGGTCTCCC
# DNA 2: TGGTGGCTACGACGGGATT
# B20: CUAUACC (DNA:RNA)
# RNA: B7 RNA with U25C, U27A, U29A, U30C, A31C
# DNA 1: CAATCTGAATTCCGGTCTCCC
# DNA 2: TGGTGGCTACGACGGGATT
# Target: T1, RBFOX1 RRM RbFoxmut (Fox-RRM*) (Homo sapiens, UniProt Q9NWB1 109-208, R118D;E147R;N151S;E152T)
# T1 sequence: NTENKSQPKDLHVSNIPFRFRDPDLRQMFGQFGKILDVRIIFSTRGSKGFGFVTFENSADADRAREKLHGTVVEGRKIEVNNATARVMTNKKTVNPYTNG
# Experiment: EMSA; HiTS-Eq, 1 nM pool, 10 min; buffer printed only for the single-RNA assays: 10 mM Tris pH 7.5, 150 mM NaCl, 3.4 mM EDTA, 0.001% NP-40, 30 C
# Details: tags: His6 N-terminal (pET28a); label: 5' 32P
# How it was run: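 A pool of RNA with 7 randomized nucleotides, 5′-radiolabelled and with DNA-annealed flanks, was equilibrated at 1 nM for 10 min in 50 µL with purified RbFox RRM, wild type or mutant, across increasing protein concentrations. Free RNA was separated by 8% native PAGE, excised, reverse-transcribed, barcoded by PCR and sequenced. Relative association constants were obtained from read-count changes of each RNA species versus the control reaction and normalised to the cognate motif.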
row,Binder,binding signal
1,B1,0.0948 KA relative to UGCAUGU
2,B2,0.0559 KA relative to UGCAUGU
3,B3,0.115 KA relative to UGCAUGU
4,B4,0.0844 KA relative to UGCAUGU
5,B5,0.131 KA relative to UGCAUGU
6,B6,0.179 KA relative to UGCAUGU
7,B7,0.116 KA relative to UGCAUGU
8,B8,0.0557 KA relative to UGCAUGU
9,B9,0.103 KA relative to UGCAUGU
10,B10,0.123 KA relative to UGCAUGU
11,B11,0.108 KA relative to UGCAUGU
12,B12,0.0793 KA relative to UGCAUGU
13,B13,0.0654 KA relative to UGCAUGU
14,B14,0.101 KA relative to UGCAUGU
15,B15,0.154 KA relative to UGCAUGU
16,B16,0.0642 KA relative to UGCAUGU
17,B17,0.137 KA relative to UGCAUGU
18,B18,0.107 KA relative to UGCAUGU
19,B19,0.0936 KA relative to UGCAUGU
20,B20,0.0929 KA relative to UGCAUGU
